A compilation of properties of binary mixtures (doi:10.1016/j.molliq.2021.118393)
Some of these densities may be calculated back from excess volumes.

Test: xn = mol fraction of the nth substance listed
Conditions: 100 kPa

SMILES | mass density (293.15 K, x2 = 0.333) [kg/m3] | mass density (293.15 K, x2 = 0.5) [kg/m3] | mass density (298.15 K, x2 = 0.333) [kg/m3] | mass density (298.15 K, x2 = 0.5) [kg/m3] | mass density (303.15 K, x2 = 0.5) [kg/m3] | mass density (308.15 K, x2 = 0.5) [kg/m3] | mass density (313.15 K, x2 = 0.333) [kg/m3] | mass density (318.15 K, x2 = 0.333) [kg/m3] | mass density (318.15 K, x2 = 0.5) [kg/m3] | mass density (323.15 K, x2 = 0.333) [kg/m3] | mass density (323.15 K, x2 = 0.5) [kg/m3] | mass density (328.15 K, x2 = 0.333) [kg/m3] | mass density (328.15 K, x2 = 0.5) [kg/m3] | mass density (333.15 K, x2 = 0.333) [kg/m3] | mass density (303.15 K, x2 = 0.333) [kg/m3]
O=C(O)CCl + CCCC[N+](CCCC)(CCCC)CCCC.O=S(=O)([O-])O | 1150.1 | 1113.6 | 1149.4 | 1110.2 | 1106.8 | 1103.3 | 1138.6 | 1135.1 | 1096.7 | 1131.7 | 1093.5 | 1128.2 | 1090.3 | 1124.7 | 
O=C(O)CCl + CCC[N+](CCC)(CCC)CCC.[Br-] | 1227.1 |  | 1223.1 |  |  |  | 1211.8 | 1208.1 |  | 1204.3 |  |  |  | 1196.9 | 1219.4
